107 molecules from ChEMBL document CHEMBL4513135, “CO-ADD screening of IQOG CSIS (Spain) compounds” can be followed below.

Each structure is given as a SMILES string. Several values for one entry are separate records, joined by “and”; a condition that tells them apart may be missing. Equal values may be shown once. This is one part of the list. Results with a measured potency or affinity are listed apart.

This assay deals with Acinetobacter baumannii. The following applies: Concentration 32 ug.mL-1, ASSAY_TEST Inhibition of Bacterial Growth, detection method Absorption (OD600), MEDIA CAMHB, plate type 384well, NBS, CORNING #3640, time 18 hr.

As to `Cc1cnc(NC(=O)OC(C)(C)C)c(Br)c1`, the Inhibition amounted to 7.81%.

Regarding `O=C(N/N=C/c1c[nH]c2ccccc12)C(c1ccccc1)c1ccccc1`, the Inhibition is on record as -15.34%.

Consider `C=C=CCN(C)Cc1cc2ccccc2n1C.O=C(O)C(=O)O`, for which the Inhibition is given as 15.5%.

Take `CCOC(=O)c1cn(C)c2ccccc12`: the Inhibition stood at 10.06%.

As for `C/C(=N\NC(=O)c1cc2ccccc2n1Cc1ccccc1)C1CC1`, the Inhibition is listed as -1.88%.

Turning to `N#Cc1c(N)nc(NCCC2CCN(Cc3ccccc3)CC2)c(C#N)c1-c1ccccc1`, the Inhibition stood at 13.37%.

Turning to `O=C(Cc1c[nH]c2ccccc12)NNCCc1ccccc1`, the Inhibition came out at 7.47%.

For `COc1ccc2c(c1)cc(CN(C)Cc1cn(Cc3ccccc3)nn1)n2C`, the Inhibition is on record as 10.78%.

On to `O=C(O)n1ccc2ccccc21`, for which the Inhibition was 6.39%.

Regarding `COc1nc(N)c(C#N)cc1C#N`, the Inhibition is 6.65%.

As for `Nc1c2c(nc3c1C(c1ccc(Cl)c(Cl)c1)c1ccc4ccccc4c1O3)CCCC2` (configuration not stated), the Inhibition is -17.9%.

In the case of `Cn1c(C(=O)NCc2ccccc2)cc2cc(OCCCC3CCN(Cc4ccccc4)CC3)ccc21`, the Inhibition was found to be 15.39%.

Consider `CCOC(=O)C1=C(C)OC(N)=C(C#N)C1c1cccnc1` (configuration not stated), for which the Inhibition amounted to 6.55%.

As to `N#CC1=C(N)Oc2c(ccc3ccccc23)C1c1cccc([N+](=O)[O-])c1` (configuration not stated), the Inhibition is given as 6.66%.

Turning to `Cc1ccc(C(O)SNNc2ncnc3c2cnn3-c2ccccc2)cc1` (configuration not stated), the Inhibition worked out at 0.88%.

For the molecule `CCOC(=O)C1=C(C)Oc2nc3c(c(N)c2C1c1nccn1C)CCCCC3` (configuration not stated), the Inhibition is 15.42%.

With `CC1Cc2c(Br)nc3nc4c(c(N)c3c2NC1=O)CCCC4` (configuration not stated), the Inhibition is recorded as 9.39%.

For `O=C(NN=Cc1c[nH]c2ccccc12)c1cccc2ccccc12`, the Inhibition turned out to be 0.02%.

Regarding `N#Cc1c(N)nc2c(c1-c1ccccc1)CN(Cc1ccccc1)CC2`, the Inhibition is on record as -3.37%.

On to `COc1cc(C2c3c(nc4c(c3N)CCC4)Oc3ccc4ccccc4c32)ccc1O` (configuration not stated), for which the Inhibition is -5.26%.

For the molecule `CCOC(=O)c1c(C)nc2nc3c(c(N)c2c1-c1ccc(OC)cc1)CCCCCC3`, the Inhibition was 5.95%.

Turning to `C#CCNc1nc(OC)c(C#N)c(-c2ccccc2)c1C#N`, the Inhibition was 7.68%.

As for `C#CCNC(=O)c1cc2cc(OCCCC3CCN(Cc4ccccc4)CC3)ccc2[nH]1`, the Inhibition is given as 4.12%.

`CCOC(=O)/C(C#N)=C\c1ccc([N+](=O)[O-])cc1`: the Inhibition is on record as 7.12%.

For `C=CCNc1[nH]c2ccc(O)cc2c1C#N`, the Inhibition was determined as 12.81%.

In the case of `CCCC(C)NNC(=O)c1cc2ccccc2[nH]1` (configuration not stated), the Inhibition was -1.27%.

On to `CC(C)(C)OC(=O)Nc1ncccc1Br`, for which the Inhibition came to 13.31%.

With `COc1ccc(C2C(C#N)=C(N)Oc3ccc4ccccc4c32)cc1` (configuration not stated), the Inhibition was 8.27%.

Consider `N#Cc1cc(C#N)c(Cl)nc1Cl`, for which the Inhibition amounted to 8.74%.

As for `COc1ccc(-c2c(C#N)c(=O)oc3c2ccc2ccccc23)cc1`, the Inhibition (32 ug/mL) was 0.82% and -5.46%.

As to `NNC(=O)C1(NC(=O)c2ccccc2)CC1c1cccc(O)c1` (configuration not stated), the Inhibition was -6.03%.

Regarding `CC(=O)Nc1nn(C)c2nc3nc4c(c(N)c3cc12)CCCC4`, the Inhibition (32 ug/mL) was 4.35% and 12.93%.

For the molecule `O=C(Cc1c[nH]c2ccccc12)NN=C1CCCCCC1`, the Inhibition is reported as 3.75%.

Turning to `N#CC1=C(N)Oc2ccc3ccccc3c2C1c1ccccc1[N+](=O)[O-]` (configuration not stated), the Inhibition came out at 8.21%.

On to `CSC1=NC2(CC2c2ccccc2)C(=O)N1C` (configuration not stated), for which the Inhibition is on record as -4.07%.

As to `CCOC(=O)c1cc2ccccc2[nH]1`, the Inhibition worked out at 4.42%.

Consider `N#Cc1cc(C#N)c(N2CCC(O)CC2)nc1N`, for which the Inhibition was 9.39%.

In the case of `CCOC(=O)c1c(C)nc(NC2CCN(Cc3ccccc3)CC2)c(C#N)c1-c1ccccc1`, the Inhibition is 11.83%.

On to `N#CC1(Br)C(=NBr)Oc2ccc3ccccc3c2C1c1ccccc1` (configuration not stated), for which the Inhibition was -3.68%.

Consider `Cc1ccc(C2CC2(N)C(=O)O)cc1.Cl` (configuration not stated), for which the Inhibition was -3.73%.

Regarding `CCOC(=O)C1=C(C)OC(N)=C(C#N)C1c1ccccc1` (configuration not stated), the Inhibition worked out at 7.79%.

As to `N#CC1=C(N)Oc2c(ccc3ccccc23)C1c1c(Cl)cccc1Cl` (configuration not stated), the Inhibition was found to be 0.55%.

As for `COc1nc2ccc(C)cc2cc1C=O`, the Inhibition turned out to be 14.54%.

For `C#CCNc1cccc(F)n1`, the Inhibition is given as 11.82%.

As to `CN(C)c1nc(Cl)c(C#N)c(-c2ccccc2)c1C#N`, the Inhibition came to 18.68%.

In the case of `O=C(N/N=C/c1c[nH]c2ccccc12)c1ccc(Cl)cc1`, the Inhibition was -13.88%.

As to `COc1ccc2c(c1)cc(CN(C)C)n2C`, the Inhibition is listed as -2.87%.

Consider `COc1ccc(C=C2N=C(c3ccccc3)SC2=O)cc1`, for which the Inhibition is -3.42%.

Take `COc1cccc(C2c3c(ccc4ccccc34)OC(=N)C2(Br)C#N)c1` (configuration not stated): the Inhibition (32 ug/mL) was 7.07% and -8.6%.

As to `Cc1ccc(CNNC(=O)c2cc3ccccc3n2C)cc1`, the Inhibition is given as -4.69%.

`N#CC1=C(Cl)Oc2c(ccc3ccccc23)C1c1ccc([N+](=O)[O-])cc1` (configuration not stated): the Inhibition is listed as -15.4%.

For `O=C(N/N=C/c1ccc(Cl)cc1)c1cc2ccccc2[nH]1`, the Inhibition amounted to 5.09%.

Take `CCOC(=O)C1=C(C)OC(N)=C(C#N)C1c1cccs1` (configuration not stated): the Inhibition worked out at 6.26%.

Take `COc1nc(Cl)c(C#N)c(-c2ccccc2)c1C#N`: the Inhibition was found to be 9.38%.

With `CC(=O)n1cc(/C=C2\N=C(c3ccccc3)OC2=O)c2ccccc21`, the Inhibition is recorded as 6.37%.

As to `C#CCNc1nc(Cl)c(C#N)c(-c2ccccc2)c1C#N`, the Inhibition is 9.61%.

Take `C#CCN(C)c1nc(NC2CCN(Cc3ccccc3)CC2)c(C#N)c(-c2ccccc2)c1C#N`: the Inhibition was determined as 13.62%.

Turning to `COc1cccc(C2C(C#N)=C(N)Oc3ccc4ccccc4c32)c1` (configuration not stated), the Inhibition was determined as 8.2%.

Turning to `CCOC(=O)C1=C(C)NC(N)=C(C#N)C1c1ccc([N+](=O)[O-])cc1` (configuration not stated), the Inhibition is reported as 3.48%.

In the case of `CC1(C)OS(=O)(=O)C2=C1NC(N)=C(C#N)C2c1ccccc1` (configuration not stated), the Inhibition is reported as -1.86%.

In the case of `CNC(=O)c1c(Cl)c2cc(OCc3ccccc3)ccc2n1C`, the Inhibition is 14.32%.

For the molecule `Cc1nn(-c2ccccc2)c2ncnc(Nc3ccccc3)c12`, the Inhibition was -3.07%.

In the case of `Cc1ccc2nc(Cl)c(/C=N/OCc3ccccc3)cc2c1`, the Inhibition is 3.92%.

With `N#Cc1c(-c2ccccc2)c2c(ccc3ccccc32)oc1=O`, the Inhibition is given as 10.93%.

Consider `N#Cc1c(Cl)nc(Sc2ccccc2)c(C#N)c1-c1ccccc1`, for which the Inhibition was found to be 6.81%.

With `COc1ccc(C2c3ccc4ccccc4c3OC(=NBr)C2(Br)C#N)cc1` (configuration not stated), the Inhibition is on record as 4.37%.

In the case of `Cc1ccc(/C=N/NC(=O)c2c[nH]c3ccccc23)cc1`, the Inhibition is given as -1.39%.

Consider `CCCCCCC(C)NNC(=O)c1cc2ccccc2[nH]1` (configuration not stated), for which the Inhibition was -0.82%.

`N#Cc1c(N)nc2[nH]nc(N)c2c1-c1ccccc1`: the Inhibition amounted to 10.64%.

For the molecule `C#CCN(Cc1ccccc1)c1nc(N)c(C#N)c(-c2ccccc2)c1C#N`, the Inhibition is recorded as 4.45%.

In the case of `CC#CCN.Cl`, the Inhibition worked out at 4.75%.

As for `N#CC1(Br)C(=NBr)Oc2ccc3ccccc3c2C1c1ccccc1[N+](=O)[O-]` (configuration not stated), the Inhibition was -2.36%.

With `Cl.NNN1CCc2ccccc21`, the Inhibition is listed as 0.05%.

For `CC(C)(C)OC(=O)Nc1ccccn1`, the Inhibition came out at 11.92%.

Turning to `O=C(Cc1c[nH]c2ccccc12)NNCc1ccccc1`, the Inhibition is given as -0.43%.

As to `COc1cc(C2c3c(nc4c(c3N)CCCC4)Oc3ccc4ccccc4c32)cc(OC)c1OC` (configuration not stated), the Inhibition is -3.43%.

`C#CCNc1nc(NCCCCC2CCN(Cc3ccccc3)CC2)c(C#N)cc1C#N`: the Inhibition is on record as -18.35%.

With `c1ccc(-c2nc3c4cnn(-c5ccccc5)c4ncn3n2)cc1`, the Inhibition is given as -4.52%.

For the molecule `CC(C)NNC(=O)Cc1c[nH]c2ccccc12`, the Inhibition is -9.52%.

Turning to `CCOc1nc(N)c(C#N)c(-c2ccccc2)c1C#N`, the Inhibition is 4.91%.

Regarding `Cc1nc(Nc2ccccc2)c2cnn(-c3ccccc3)c2n1`, the Inhibition is given as -3.92%.

As to `COC(=O)/C(=C/c1ccc(O)cc1)NC(=O)c1ccccc1`, the Inhibition was determined as 6.28%.

Take `Cc1cc(Br)cc(C)c1NC=C(C#N)C#N`: the Inhibition came to 13.39%.

Consider `C#CCN(C)c1nc(N(C)CC#C)c(C#N)cc1C#N`, for which the Inhibition came out at 11.79%.

Turning to `COc1ccc2nc(Cl)c(C=O)cc2c1`, where the note is “32 ug/mL”, the Inhibition was 15.1% and 13.38%.

On to `COC(=O)C(=Cc1ccc(OC)cc1)NC(=O)c1ccccc1`, for which the Inhibition is reported as 2.13%.

As for `C#CCN(C)Cc1cc2cc(OCc3ccccc3)ccc2n1C.O=C(O)C(=O)O`, the Inhibition worked out at 5.78%.

As for `COc1nc2ccccc2cc1C=O`, the Inhibition turned out to be 16.43%.

Take `Cc1ccc(CNNC(N)=O)cc1.Cl`: the Inhibition was -2.24%.

Take `NNC(=O)c1c[nH]c2ccc(OCc3ccccc3)cc12`: the Inhibition is reported as -9.96%.

Consider `CC(=O)CC(=O)N1[C@@H]2C[C@H]3CCC2(CS1(=O)=O)C3(C)C`, for which the Inhibition is -1.41%.

For the molecule `CN(C)c1cccc(C(=O)c2cccc(N(C)C)c2)c1`, the Inhibition was found to be 0.52%.

Consider `O=C1SC(SCc2ccccc2)=NC1=Cc1ccccc1`, for which the Inhibition is on record as -2.76%.

As to `O=C(N/N=C/c1c[nH]c2ccccc12)c1cc2ccccc2[nH]1`, the Inhibition is reported as -2.06%.

For the molecule `N#Cc1cc(C#N)c(N2CCC(Cc3ccccc3)CC2)nc1N`, the Inhibition is given as 6.74%.

In the case of `COc1ccc(C=C2N=C(SC)N(C)C2=O)cc1`, the Inhibition was 5.41%.

On to `CC1=C(CO)C(c2ccc(C#N)cc2)C(C#N)=C(N)O1` (configuration not stated), for which the Inhibition amounted to 7.59%.

For `COc1cc(C2CC2(N)C(=O)O)ccc1O` (configuration not stated), the Inhibition is on record as -6.23%.

Regarding `COc1ccc(C2C(C#N)=C(N)Oc3c2ccc2ccccc32)c(OC)c1` (configuration not stated), the Inhibition is recorded as -1.28%.

On to `C#CCNc1nc(NC2CCN(Cc3ccccc3)CC2)c(C#N)cc1C#N.Cl`, for which the Inhibition amounted to 10.55%.

Consider `Cn1ccnc1C1c2ccc3cccnc3c2Oc2nc3c(c(N)c21)CCC3` (configuration not stated), for which the Inhibition is listed as -11.24%.

`CN(C)c1nc(N)c(C#N)cc1C#N.Cl`: the Inhibition (32 ug/mL) is 12.83% and -0.55%.

As to `COc1ccc(/C=C2/N=C(c3ccccc3)OC2=O)cc1OC`, the Inhibition is 1.7%.

As to `COc1nc(NC(C)=O)c(C#N)c(-c2ccccc2)c1C#N`, the Inhibition was 5.03%.

With `COC(=O)C(=Cc1ccc([N+](=O)[O-])cc1)NC(=O)c1ccccc1`, the Inhibition stood at 2.23%.

Turning to `COC(=O)C(C#N)=Cc1ccccc1`, the Inhibition is -0.14%.

As to `Nc1c2c(nc3c1C(c1ccc([N+](=O)[O-])cc1)c1ccc4ccccc4c1O3)CCCC2` (configuration not stated), the Inhibition is -19.56%.

As usually defined, the Inhibition is the relative decrease from the control value, in per cent.
